# Assay results taken from PubChem BioAssay (NCI).
#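 Method: 48-hour compound exposure of cells in 96-well plates, five concentrations, linear interpolation of endpoints. GI50 marks 50% less growth. TGI marks complete inhibition of growth.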
# System: NCI-H322M lung
# Test: NCI-60 cell line screen, 48 h
Structure (SMILES),GI50 [µM],TGI [µM]
CSc1ccc(/C(=N/N=C(N)N)c2ccc(F)cc2)cc1,0.627,15.1
O=C(NNc1nc2cc(F)c(F)cc2n2c(CN3CC4CNCC4C3)ccc12)c1ncccn1 (stereo not drawn),1.82,25.6
O=C1Nc2cc(OC(F)(F)F)ccc2Oc2ccc(-c3ccnc(N4CCNCC4)c3)cc21,1.53,2.9
COc1ccc(Cn2cc3c(c2-c2cc(OC)c(OC)c(OC)c2)CCc2c(CN4CCCC4)noc2-3)cc1,5.54,> 100
